Experimental data published in the RNAGym collection of RNA variant scans (doi:10.7554/elife.90254).
Read counts are not given, so values of variants with three or more changes are uncertain.

B1: LINE1-mini (parent)
chain: GGCAGAGCUCAACACAGCGUGGCAAAGUGGCUGUGGCUAGACUGCC

Variants of: B1
Test: self-cleavage, relative activity (ratio to wild type); higher = more cleavage; in vitro, sequencing; the parent is a self-cleaving ribozyme

| Variant | self-cleavage |
| --- | --- |
| GGCAUAGCUCAACACAGCGUGGCAAAGUGGCUGCUGCUAGAGUGCC | 0 |
| CGCAGAGCACAACACAGCGUGGCAAAGUGGCUGUGGCUAAACUGCU | 0.01 |
| GGCAGAGCUCAACACUCCGUAGCAAAGUCGCUGUGGCUAGACUGCC | 0.17 |
| GGCAGAGUUCGACACAGCGUGGCAAAGUGGCUGUGGCUAGACUGCA | 0.02 |
| GGCAGAGCUCAACCCAGGGUGGCGAAGUGGAUGUGACUAGACUUCC | 0.05 |
| UGCAGAGCUCAACACUGCGUGGCAAAGUGGCUUUGGCUAGACUGCC | 0.06 |
| GGCAGGGCUCAACACUGCGUAGUAAUGUGGCUGUGGCUAGACUGCC | 0.09 |
| GGCAGAGCUAGACACAGCGUGGCAUAGUGGCUGUGGCUAGACUGCC | 0.03 |
| GCCAGAGCUCCACACAGCGUGGGAAAGUGACUGUGCCUAAACUGCC | 0.01 |
| GCCAGAGCUCAACAUAGCGUGGCAAAGUAGCUGAGGCUAGACUGCC | 0.27 |
| GGAAGAGCUCAACACAGCGUGGCAAAGUCUCUGUGGCUAGACUGCC | 0.15 |
| GGCAGAGCUGAACACGGCGUAGCAAAGUGGCUAUGGCUAGACUGCC | 0.03 |
| UGCAGAGCUCAACACAGCGUGGCAAAGUGGCUGCGGCUAGACUGCG | 0 |
| GCCAUAGCUCAAGACAACGUGUCAAAGUGGCUGUGGCUAGACUGCC | 0.02 |
| UGUAGAGGUGAACACAGCGUGGCAAAGUGGCUGUGGGUAGACUGAC | 0.02 |
| GGCAGAGCUCAACACAGAGUGGCUAAGUGUCGGUGGCUGGACUGCC | 0.02 |
| GGCAGAGCUGAACACAGGGUGGCAGAGUGGCUGUGGCUAGACUGCC | 0.04 |
| AGCAGAUCUCAACACAGCGAGGCAAAGUGGGUGUGGCUAUACUGCC | 0.14 |
| GCCAGAGCUCAACACAGCAUGGGAAAGUGGCUGUGGCGGGACUGCC | 0.02 |
| GGCAGAGCUCAACACAGCGUGGCAAUGUGGCUGUGGCUCGAUUGCC | 0.05 |
| GGCAGAGCCCAACACAGCGUGGCAAAGUGGCUAUCGCGAGACUGCC | 0.03 |
| GGCAGAGCUCAACACUGCGUCGCAGAGUGGCUGUGGCUAGACUGCC | 0.15 |
| GGCAGAGGUCAACAAAGCGUGGCAAGGUGGCUGUGGCUAGACUGCA | 0.01 |

| Variant | self-cleavage |
| --- | --- |
| GGCAGAGCUCAACACAGCGUGGCAAAGUGGCCGCCGCUAGACUGCC | 0.11 |
| GGCAGAGCUUAACACAGCGUGGAAAAGUGGCUGUGUCUAGACUGCC | 0.01 |
| GGCAGAGCUCAACACAGCAUGGCAACGUGGCUGUGGCCAGCCUGUC | 0.01 |
| GGCAGAGCUCAGCUCAGCGUGACAAAGUGGCUGUGGCUUGACUGCC | 0.07 |
| GGCAGACCUCAACACAGCGUGGCAAAGUGGUUGUGGUUAGACUGCC | 0.02 |
| GGCAGAGAUCAACACAGCGUGGCAAAGUAGCUGUGGCUAGACAGCC | 0.03 |
| GGCAGAACUCAACACCGCGUGGCAAAGUGGCUGUGGCUAGAAUGCU | 0.45 |
| GUCAGAGCUAAACACAGCGUGACAAAUUGGCUGUGGCUAGACUGAC | 0.01 |
| GGCAGAGCUCAACACAGUGGGGCAAAGUGGCUGUACCUAGACUGGC | 0.11 |
| UGCAGAGCUCAAUACAGCGUGGCAAAGUGGCUGUGGCUUGACUGCC | 0.39 |
| GGUAGAGUUCAACACAGCGUGGCAAAGUGGCUCUGGCUAGACUGCC | 0.12 |
| GGCAGAGCUCGACACAGCGUGGCAAAGUGGCUCUGGCUAGACUGCA | 0.01 |
| GGCAAAGAUCAGUACAACGUGGCCAAGUGGCUGUGGCUAGACUGCG | 0.15 |
| GGCAGAGCUCAACACACCGUGGCAAAGUGGCUGCGGCUAGCCUGCC | 0.09 |
| AGGAGAGCUCAACACAGCGUGGCAAAGUGGCUGUGGCUGGACUGCC | 0.26 |
| GGCAGAGGUCAACACAGAGUGGCAAAGUGGUUGUGGCUAGACUGCC | 0.01 |
| GGGUGAGCUCAACGCAGCGUGGCAAAGUGGCUGUGGUUAGACUGCC | 0.44 |
| GGCAGAACUCAUCACAGCUUGGCGUAGUGGCUGUGGCUAGACUGCC | 0.11 |
| GCAAGAGCUCCACACAGCAUGGCAAAGUGGCUGUGGCUAGACUGCC | 0.16 |
| GGCAGAGCUCAAACCAGCGUCGCAAAGUGGCUGUGUCUAUACUGCC | 0.22 |
| GGAAGAGCCCAACACAGCGUGCCAAAGUGGCUGUGGCUAGACUGCC | 0.04 |
| GCAAGAGGUCAACACAGCGUGGCAAAGUGGCUGUGGCUAGACUGCC | 0.02 |
| GGGAGACCUCAACACAGCGUGGUGAACUGGCUGUGGCUAGCCUGCC | 0.03 |

| Variant | self-cleavage |
| --- | --- |
| GGCAGAGCUCAACCCAGCGUGGCCAAGUGGCUGUGGCUAUACUGCC | 0.1 |
| GGCAGAGAUCAACACAGCGUGGCAAAGUGGCUGUGGCUUGACCGAU | 0.5 |
| GGCAGAGCUCAACACACCGUGACCAAGUGGCUGUGGCCAUACUGCU | 0.1 |
| GGCAGAGCUCAACACAGCGUUGCAAAGUGGCUCUGGGUAGACUGCC | 0.05 |
| GGCAGAGCUCAACACAGCGUGGCAAAGUGCCUGUGGCUGCACUGCC | 0.22 |
| GGCAGAGCUCAACACAGCGUGGCAAUAUCGCUGUGGCUAGACUGCC | 0.08 |
| GGAAGAGCUAACCACAGCGUGGCAAAGUGGCUGUGGAUAGACUGCC | 0.02 |
| GGCAGUGCUCCACACAGCGUGGCAACGUGGCUGUGGCUAUACUGCC | 0.01 |
| GGCAGAGCACAACACAGCGAGGCAAAGUGGAUGUGGCUAGACUGCC | 0.05 |
| GGCGGAGCUCAACACAGCGUGGCAAAGUUGCAGUGGCUAAACUGCC | 0.03 |
| GGCAGAGCUCAACACAGCUUGGCAAAAUGGCUGUGGAUAGACAGCU | 0.01 |
| GCCAGAGCUAAACACAGCGUGGCAUAGCUGCUGUGGCUAGACGGCC | 0 |
| GGCAGGACUCAACACAGCGUGGCAAAGUGGCUGGGGCUAGACUGCC | 0.03 |
| GGAAGAGGUCAACAAAGCGUGGCAAAGUGGCUGUGGCUAGACCGCU | 0.1 |
| UGCAGAGCUCAACACAGCGUGGCAAAGUGGCUGUGGAUAAACUGCC | 0.08 |
| GGCAGAGCUCAACACAGCGUAGCAAAGUGGCUGUGGGUUGACUGCC | 0.08 |
| GGCAGAGCUCAACACAGCGUGGCAAAGUGGCUGUGGCUAGUCUCAC | 0.14 |
| GGCAGAGCUCGACACAGCGUGGCAAAGUAGCUGUGUCUAGACUGCC | 0.02 |
| GGCAGCGCUCAACACAACGUGGCAAAGUGGCUGUCGCUAGACUGCC | 0.05 |
| GUCGGAGCUCAACACAGCGCGGCAACGUGGCUGUGGCUAGACUGCC | 0.04 |
| GGGAGAGCUUAACACAGUGUGGCAAAGUUGCUGUGGCUAGACUGCC | 0.31 |
| GGCAGAGCGCAACACAGGGUGGCAAUCUGGCUGUGGCUAGACUGCC | 0.07 |
| GGCAGAGCUCAACACAGAGUAUCAAAGUGGCUGUGGCUAACCUUCC | 0.01 |

| Variant | self-cleavage |
| --- | --- |
| GGCAGAGCUCAACACAGCGUGGCAAAGAGCCUGUGGCUAGACUUCC | 0.06 |
| GGCAGAGCUCCACACAGCGUGCGAAAGCGGCUGUGGCUAGACUGCC | 0.03 |
| GGCAGAGCUCGACACAGCGUUGCAAAGUGGCUGUGGCAAGACUGCC | 0.01 |
| GGCAGCUCUCAACACAGCGUGGCAAAGUGGCUGUGGCUAGACUGCU | 0.06 |
| GGCAAAGCUCAACGCAGCGGGGCAAAGUGGCUUUGGCUAGACUGCC | 0.03 |
| GGCAGAGCCCAACACAGCGUAGCAAACUGGCUGUGGCUAGACAGCC | 0.03 |
| GGCAGAUCUCAACAUAGUGUGUCAAAGUGGCUGUGGCUAGACUGCC | 0.08 |
| GGCACACCUCAACACAGCGUGGCAAAGUGGCUGUGGCUAGCCUGCC | 0.14 |
| UGCAGAGCUCAACAAAGCGUGGCAAAGUGGCUGUGGCUAGAGUGCC | 0.07 |
| GGCAGCGAUGAACUAAGCGUGGCAAAGUGGUUGUGGCUAGACUGCC | 0.01 |
| GGCAGAGCUCCGCACCGCGUGGCAAAGUGGCUGUGGCUAGAGUGCC | 0.02 |
| GGCAGAGCUCAACACAGGGUGUCAAAGUGGCUGAGGCUAAACUGCC | 0.01 |
| GGAAGAGCUCAACACAGAGUGGAAAAGUGGCUUUAGCUUGACUGCC | 0.07 |
| CGCUGAGAUCAACACAGCGUGGCGAGGUGGCUAUGGCUAGAAUGCC | 0.07 |
| GACAGAGCUCAACACAGCGUGGAAAAGUGGCUAUGGCUAGACUGCC | 0.05 |
| GGCAGAGCUCGACAUAGCGUGGCAAAGUGGAUGUGGCUAGAUUGCC | 0.02 |
| GGCAUAGCUCAACAGAGCGUGGCAAAGUGGCCCUGGCUAGACUGCC | 0.02 |
| UGCAGAGCUCAACACAGCGUGGCAAAGUGGCUGUGGCUAGAUGGCC | 0.1 |
| GGCAGAGCACAACAUAGCGUGGCAAACUGGCUGUGACUAGACAGCC | 0.07 |
| GGCAGAGCUAAACACAGCGUCGCAUGGUGGCUGUGGCUAGACUGCC | 0.02 |
| GGCCAAGCUCAACACAGCGUGGCAUAGUGGCUGUGACUAGACUGCC | 0.22 |
| GGAAGAGCUCCACACAGCGUGGCAGAGUGGCUGUGGCUAGACUGCC | 0.03 |
| GGCAGAACUGAAAACAGCGUGGCAAAGUGGCUAUGGCUAGACUACC | 0.02 |

| Variant | self-cleavage |
| --- | --- |
| GGCAGAGCUCAACAUAGCGUGGCAAAGUGGCUGUGGGCAGACUGCC | 0.02 |
| GGCAGAGCUCAACACCGCGCGGCAAACUGGCUGUGUCUAGACUGCC | 0.01 |
| GGCAGAGCUCAAAACUGCGUGGCCAAGUGGCUCGGGCUAGACUGCC | 0.05 |
| GUAAGAGCUCAACACAGCGUGGCAAAGUGGGUGUGGCUAGACUGCC | 0.08 |
| GGCAGAGUUCAGCUCAGCGUGGCAAAGUGACUGUUGCUAGACUGCC | 0.02 |
| CGCAGAGCUCAACACAGCGUGGCAAAUUGGCUGUGGCUAAACUGCC | 0 |
| GGCAGAGAUCAACACAGAGUGGCAAAGUGGCUGUGGCUAACCUGCC | 0.07 |
| GGCGGAGUUCAACACAGCGUGGCAAAGUGGCUCUGGCGAGUCUGCC | 0.1 |
| GGCAGAGCUCAACACAUCGUGGCUAAGUGGCUGUGGCUAGACUUCC | 0.04 |
| GGCAGAGCUCAACACGACGUGGCAAAGUGGCUGUGGCUAGGCUGCC | 0.02 |
| GGCAGAGAUCACCACAGCGUAGCAAAGUGCCGGUGGCUAGACUGCC | 0.03 |
| GGCAGAGCUCAACACAGCGUUGCAAAGUGGCUGUGGCAAGACUGGG | 0.16 |
| UGCAGAGCUCAACACAGCGUGGCUAGGUGGCUGUGGCUAGACCGCC | 0.03 |
| GGCAGAGAUCAACACAGCGUGGUAAAAUGGCUGUGGCUAGACUUCC | 0.16 |
| GGCAGACCUCAACACAGCCUGGCAAAGUCGCUGUGGCUAGACUGCC | 0.03 |
| GGCAGAGCUCAACAUAGCGUGACAAGGUAGCUGUGGCUAGAAUGCC | 0.27 |
| GGCAGAGCUCAACACAGGGUGGAAAAGUGGCUGUGGCUACACUGCC | 0.03 |
| GGCAGAGCUUAACACAGUGUGGCAGAGUGGCUGUGGCUAGACAGCC | 0.01 |
| GGCAGAUAUCAACACAGCGUGACAAAGUGGCUGUGGCUAGACUGCG | 0.88 |
| GGCAGAGCUCAACACAGCGUGGCAAAGUUGCUGUAGCUGGACUGCC | 0.44 |
